# In the supplement of paper PMC3334620:
# Whole data set: some 33,000 sequences, median “E-score (-0.5 to 0.5)” near -0.056, cut for the highest 2% near 0.38. The list shows a part of the results.
# Target: Stb4 (UniProt P50104)
# Assay: PBM E-score (8-mer binding enrichment) (E-score (-0.5 to 0.5)); higher = stronger / more preferred TF binding; most listed sequences are background and not binding sites
# Settings: protein concentration: 200 nM; construct: GST-DNA-binding domain
# Procedure, shortened: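 Masliner-normalised scans of fluorescent anti-GST signal were the basis for scoring. That signal came from GST-tagged yeast transcription factors applied at about 100-200 nM to double-stranded universal all-10-mer Agilent arrays on fresh or once-stripped slides. Each ungapped eight-base word, pooled with its reverse complement, received an E-score from the Universal PBM Analysis Suite.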
row,Sequence,PBM E-score
1,TAGGCGAA,-0.331
2,AGGACCTA,0.00979
3,AACAACGA,-0.133
4,CAGGGCGG,0.0304
5,AATGACAA,-0.0973
6,AGGTCACA,-0.146
7,GCGGTCAC,0.052
8,AGCGTCGG,0.305
9,TAATACCA,-0.00115
10,ACAGAGAG,-0.234
11,AACTTCTA,-0.223
12,CCAGTTTA,-0.14
13,ACGAGACC,-0.0429
14,CGCAGGCG,-0.12
15,AGCGATAG,-0.175
16,CCATGTTA,-0.177
17,CCTCGTAA,-0.0164
18,CTTTGAAA,-0.226
19,TCAGTCCA,-0.185
20,GCTGTCCA,-0.0665
21,AAGCTAGT,-0.189
22,AACCAATT,-0.0719
23,AACCGCTA,-0.134
24,CGTCAAAC,0.0267
25,ATCAATAA,-0.101

row,Sequence,PBM E-score
1,AAGTCGAA,-0.279
2,CGCTGCGC,-0.0608
3,ATCTCGCC,0.0501
4,TCCGGCCA,0.287
5,ATACGTTG,-0.277
6,CGCATCAC,-0.0184
7,CATGTCGA,-0.0821
8,TAATTTGA,-0.151
9,TACTTATA,-0.0844
10,AAAGATCT,-0.178
11,AAACCTTT,0.046
12,CCAGTTCC,0.224
13,TATAGCCA,-0.113
14,CGGCGGCA,0.179
15,CGGCAGTC,0.31
16,CGATGTTC,0.117
17,GGTCCGGA,0.34
18,GAACAAGA,0.0889
19,GCGGCGCA,-0.0865
20,ATTGGTGC,0.0227
21,CTATACAA,-0.235
22,TAATAATA,-0.144
23,CGGAGCGC,0.202
24,GTTCTGAA,-0.216
25,CAGCACCA,-0.0655

row,Sequence,PBM E-score
1,TAGGCTCA,-0.184
2,CAGATCCG,0.416
3,AAATAGCC,0.141
4,CACAACTG,-0.216
5,GGCAGCAC,-0.139
6,CTTGGAAC,-0.0942
7,CATTATCC,0.21
8,CACGGTAC,0.0444
9,GCGTTCTA,0.00522
10,AAAGATGG,-0.159
11,GAAGTATA,0.139
12,GAGCATGA,-0.195
13,CCTGCACC,-0.0562
14,TCTTGACA,-0.0935
15,ACTAAGTG,-0.0548
16,CGGTCTAA,0.0119
17,CGGGCGTA,0.079
18,GAGGAGCA,0.0497
19,ATCGTTTC,-0.0895
20,CCAGAACA,-0.0874
21,AAAACTAG,-0.0234
22,GCAAAGCC,-0.177
23,AACCTGGT,0.052
24,ACTAGCCT,-0.121
25,ACCAGGAA,-0.0286

row,Sequence,PBM E-score
1,ACACCCCT,0.142
2,CAATCTGA,-0.0386
3,CAGCTCAC,-0.188
4,CTTTGTCC,-0.00211
5,ACCCCGCC,0.227
6,ACCAACAG,0.00557
7,CCCGCCCA,0.229
8,CTCCATGC,-0.166
9,AAATGCTT,-0.0856
10,AATCCGCC,0.218
11,CCGATCGG,0.373
12,TCAGCACA,-0.223
13,ACGGATGA,0.316
14,ATCCAGAT,-0.0692
15,ACGTTAGT,-0.131
16,CCCCTTCA,-0.237
17,GGCTAGGA,-0.158
18,GTTCGGAA,0.474
19,GCGTACCA,-0.227
20,AGTGGCGC,-0.103
21,GGCAGACC,-0.0364
22,GAGTCGGC,0.223
23,AGGGTGTG,-0.0224
24,ACCTTCGT,-0.0808
25,CTCTTTCA,-0.128

row,Sequence,PBM E-score
1,CGTCAGAA,-0.193
2,AAAGCTAT,-0.00392
3,AATGCACC,0.143
4,CATAGAGC,-0.219
5,CTGGAAGC,-0.244
6,AATTAACC,0.231
7,ATACGACA,-0.222
8,ATAAGAAT,-0.0747
9,AAAGGCCA,-0.2
10,AGCAACGC,-0.168
11,ACATTACA,-0.153
12,ACCAGTAA,0.0512
13,ACTGACTC,0.00376
14,GATCCATA,0.0378
15,GAACGCCA,0.0483
16,ACCCGGTA,0.292
17,TGCTTGAA,-0.0812
18,CAAGTGAC,-0.0298
19,CTGAGGTC,-0.243
20,CTGGGTTA,-0.125
21,GAGGTTCC,0.228
22,CCTCTTGC,-0.0811
23,CCTCGGGC,0.288
24,CGCGAGTA,0.0512
25,CCACATTA,-0.194

row,Sequence,PBM E-score
1,ACGGAGGA,0.146
2,AACGACGG,0.199
3,CATTGTGA,-0.092
4,GGCCTCAC,0.011
5,AAACTGTG,-0.12
6,GATGACAA,0.047
7,AGGCGCTC,-0.0622
8,GCGAACAC,-0.198
9,TAACTCAA,-0.0973
10,CCTTGCAG,-0.139
11,ATCTGCTG,-0.199
12,ATATGCGA,-0.0377
13,CCAGGGGC,-0.404
14,CTCCCCCA,-0.129
15,CTCACCTC,-0.159
16,CTGAACCA,-0.197
17,TGAATCCA,-0.128
18,AATCGTGC,0.115
19,GTCCAAAA,0.107
20,CAACGAGC,-0.231
21,AAAAAGTC,0.0782
22,AACGACAT,-0.103
23,TGCAGACA,-0.191
24,AAGGCTGC,0.00401
25,CTTTCAGA,-0.00262

row,Sequence,PBM E-score
1,CTAGTCGA,-0.129
2,ACCAGACA,-0.132
3,GACCATGA,-0.115
4,CTATACCA,-0.226
5,CGAGTCAG,-0.111
6,AACTTGAT,-0.147
7,GGACGTAC,-0.117
8,AGTAGTAT,0.0108
9,ACAGCAGC,-0.185
10,CACTCCAG,-0.0844
11,CAGCTGAG,-0.274
12,CGACGGCG,0.0996
13,ACTTACCT,-0.147
14,CGCCAATA,0.0151
15,AATGCCTA,0.0358
16,GAAGTAAA,0.111
17,AGTGAGAC,-0.0907
18,TCATGGGA,-0.318
19,CTAGGCGC,-0.0905
20,ACAACAGA,-0.302
21,TACCCGAA,0.476
22,CGCACCTA,-0.174
23,ACATATCG,-0.0909
24,CGTACTTC,0.147
25,ATAGGCAG,-0.255

row,Sequence,PBM E-score
1,GAGGTTCA,0.012
2,CATTTCTC,-0.0047
3,TGAGAAAA,-0.269
4,GCACTGCC,0.0788
5,AACCCCCA,-0.178
6,AAACCGAT,0.131
7,CAGCGGCC,-0.0303
8,GCGGCTCA,0.13
9,CGTTATAG,-0.167
10,ATGTGGTG,0.0268
11,TCGTGTCA,-0.185
12,ACTGATTA,-0.0509
13,CCCTGCGC,-0.181
14,AAACTATG,-0.197
15,ACGTTAAA,-0.0672
16,CCACGTAG,-0.217
17,CGTTAAAG,0.0122
18,CGTGCTTC,0.15
19,GCGCTTCA,-0.0611
20,AAGACCAA,-0.12
21,AAGGGGCG,0.0504
22,GAGACTGC,0.0509
23,AACTTATC,0.187
24,ATCACCCC,-0.103
25,AGCCCAGA,-0.209

row,Sequence,PBM E-score
1,CTAAAAAC,-0.105
2,CCTAGCCG,0.269
3,GCGCGTCC,-0.0498
4,AGGATCCT,-0.218
5,CTGTACAG,-0.11
6,CTTTGGGA,-0.158
7,CGAAGCTA,-0.0183
8,GCAACAAA,-0.0254
9,CGCCTCTA,-0.0795
10,CCGACAGA,0.297
11,CCCCACAA,-0.0714
12,ATGCTTGC,-0.059
13,ACATTACG,0.0323
14,AGAGGCGC,-0.0768
15,ACGACCAC,-0.177
16,GGCTAGAA,0.106
17,ACGCCCCT,-0.247
18,AGAGTGAA,-0.0295
19,CGGCGCCC,0.0849
20,ATCGGGGA,0.243
21,AGCGGATA,0.386
22,CGGCTCTC,0.205
23,GAGCTCAA,0.0672
24,ACGTTCCT,-0.168
25,CTAACAAG,-0.27

row,Sequence,PBM E-score
1,GGAATACA,0.181
2,ACCAAGAG,-0.174
3,AACGTCGA,-0.157
4,CAAACGTG,-0.0874
5,CACAATAG,0.0246
6,TAGCATAA,-0.0894
7,GGCCGGAA,0.371
8,CTCGCTTC,0.0963
9,ACGGTAGC,-0.104
10,ACATATGG,-0.226
11,GGCGCAGA,-0.03
12,CTACAACC,0.0951
13,ATCCCCCA,-0.281
14,GAACGCCC,-0.0187
15,ACTGGAAG,-0.283
16,GCCTAAGC,-0.138
17,AATTACGT,-0.187
18,ATGTGATA,-0.266
19,ACGAGCGC,-0.0806
20,AATTTGGC,-0.158
21,AAGACGGG,0.223
22,GACCGTAA,-0.0967
23,AGACGGAC,-0.0259
24,CAGCTCTC,-0.0779
25,CAGCAGTA,-0.213

row,Sequence,PBM E-score
1,GCATTACC,0.134
2,AAATCTTG,-0.0101
3,TAGGACTA,-0.0548
4,TCTTTAAA,-0.101
5,AGGGTTTA,-0.172
6,ATTGAGGG,-0.176
7,ATAAGTAT,0.0367
8,CCGCTCCC,0.116
9,AGACTCAC,-0.301
10,ATATCTAG,-0.153
11,CTTCGTTA,-0.159
12,CAGGTTAG,-0.12
13,ATTCGCCG,0.225
14,CGACACCA,0.145
15,CGCGTAAG,-0.0183
16,GTAGCGAA,-0.0712
17,CAATTATC,0.0951
18,CAGCGCCA,-0.234
19,GGCCGGCA,0.313
20,TGACCACA,-0.218
21,CGATAGAG,-0.0674
22,CGCACTCA,0.136
23,ATTCCAAA,-0.0736
24,AAACATAG,-0.15
25,ACTTCTAG,-0.191

row,Sequence,PBM E-score
1,CCATTGTC,-0.0328
2,AAGTGCGG,0.226
3,ACATGTTC,-0.0431
4,GCCAGTAA,-0.103
5,ACAATAGA,-0.117
6,ATTGGGGG,-0.25
7,AGCCGTAG,0.146
8,AATTGTGC,-0.0968
9,CGGCCGCC,0.145
10,CCTATCGA,-0.272
11,CTCCCACC,-0.045
12,GAGGCCGA,0.201
13,CGTCAGGC,-0.0155
14,GATGCCAA,-0.201
15,CGTGCTCA,0.0362
16,CCACGACG,0.0216
17,GCGTACGA,0.0506
18,TAATAGGA,-0.0695
19,CGTCTAGA,-0.0657
20,ACTTTATG,-0.136
21,AAAGTGGG,-0.0324
22,AATTATAT,0.107
23,AGAACAAA,0.0832
24,CGCGCGAG,-0.0296
25,CAGCTAGC,-0.0222

row,Sequence,PBM E-score
1,CGGTTTAC,0.147
2,CGATCTCC,0.0879
3,TTTAGAAA,0.0564
4,AGTCCTGA,-0.289
5,GCTCTATA,-0.0785
6,AATGGACT,-0.294
7,CTGACTGA,-0.239
8,CGGAACCG,0.407
9,CGTAACCA,-0.0775
10,CCTTCCCC,0.0472
11,ACACCAGA,-0.0626
12,CCAAGGGC,-0.173
13,AAACGTTA,-0.134
14,CACGAGAG,-0.136
15,AATGGGAT,-0.0469
16,CTAATCTC,-0.0453
17,TCAGCTAA,-0.276
18,GACCTGAA,0.156
19,CGCATGTC,-0.102
20,GATACATA,0.0345
21,CTGAGGCA,-0.124
22,AACGATAT,-0.0769
23,CGATGCGC,0.0321
24,CGTAAAAG,-0.13
25,CAACTCAA,-0.0984

row,Sequence,PBM E-score
1,AAAATCCG,0.316
2,ATACTATA,-0.167
3,AAAATCGA,-0.175
4,GCGTCTGA,-0.15
5,AACCGTGT,0.12
6,AGTGCCGG,0.301
7,GTTTGCCA,-0.0952
8,AAACCCAT,0.0958
9,ACGAGACG,0.0568
10,ATGATGGG,-0.114
11,GCGTCAAC,-0.169
12,AGCTTGAT,-0.25
13,CACTAAGC,-0.203
14,ATAGCAAG,0.0135
15,CACGCAAG,-0.109
16,ACTGCACC,0.0311
17,GTTAGTCA,-0.052
18,CGGGGACA,0.193
19,TAGTCAAA,-0.144
